Data taken from the RNAGym collection of RNA variant scans (doi:10.7554/elife.90254).
The source gives no read counts; variants with many changes may rest on few reads.

B1: OR4K15 (parent)
chain: GUUAACGGUCAUAGGCCAUGGAAACUAGGAGCACCAUUUCGCUGCCAGUGAAGAAAUGAACAAAGAAAAUCUGGGCCAGGCAGGCAUCAAAAGAAAUAGUCUUGCGCUCAACCAGAAAGUCUGUAAUCAUUUUAAGGGUA

Variants of: B1
Test: self-cleavage, relative activity (ratio to wild type); higher = more cleavage; in vitro, sequencing; the parent is a self-cleaving ribozyme
Variant G65U A69G A82U A91G G138A has a self-cleavage of 0.09.
For U72A A91G A92G, the self-cleavage was 0.23.
Variant A67G A90G A126U has a self-cleavage of 1.18.
U70C U97A A129G gave a self-cleavage of 0.31.
U70C U127A U132C showed a self-cleavage of 1.07.
G65U A82G U87A U124C showed a self-cleavage of 0.29.
With A67G A91G U100C A111G the self-cleavage was 0.02.
Work on U72C A96G G115A A125G yielded a self-cleavage of 0.
With A78G A96G U133C the self-cleavage was 0.21.
Variant C76U C81U A96G A111G has a self-cleavage of 0.01.
In the case of U70C G75C C85G U108C, the self-cleavage is reported as 0.01.
A66G C71A G83A A95G showed a self-cleavage of 1.13.
A68G U102C U108C gave a self-cleavage of 0.
For C76U A92G U133C, the self-cleavage was 0.11.
Work on A66U A82G A96G yielded a self-cleavage of 0.99.
A68G U70A U103C showed a self-cleavage of 0.46.
With U70C A78U U127A the self-cleavage was 0.21.
Work on A67G A69G C109U yielded a self-cleavage of 0.49.
Variant A69G A90G A96G U100C has a self-cleavage of 2.59.
A69G U87C U127C gave a self-cleavage of 0.46.
For U70C U100C U122C, the self-cleavage was 2.06.
For A69G A78G A118G U132C, the self-cleavage was 0.14.
For U72C A96G A111G, the self-cleavage was 0.03.
A66G U100A A118C A140G gave a self-cleavage of 0.63.
U72C A89G A91G gave a self-cleavage of 0.12.
In the case of A66U A82U A89C, the self-cleavage is reported as 0.15.
In the case of A69G A90G G138A, the self-cleavage is reported as 1.23.
Variant U70C A92G A114G has a self-cleavage of 0.09.
A78C U97C A117U showed a self-cleavage of 0.07.
Work on U70C A78C U124A yielded a self-cleavage of 0.03.
A67U A90G U120C U130C showed a self-cleavage of 0.3.
With U70A A117G A118G U130C the self-cleavage was 0.15.
A67G A82G A90G U120C gave a self-cleavage of 0.13.
Work on U72A A111G U127A yielded a self-cleavage of 0.06.
For A66G A92G A94G A118G, the self-cleavage was 1.15.
For U70A A96G A117G, the self-cleavage was 0.91.
For U72A U97G A111G, the self-cleavage was 0.01.
With A68G U70C A114U A116G A118G the self-cleavage was 0.04.
With A66U A117G A118G A134G the self-cleavage was 1.4.
For A68G A82C A91G, the self-cleavage was 0.08.
For A67G A90G U103C, the self-cleavage was 1.07.
In the case of A69U A78C U103C, the self-cleavage is reported as 0.27.
Variant C77A U102C U122C has a self-cleavage of 1.55.
For A67G A69U A78G G106U, the self-cleavage was 0.01.
In the case of A67G A78U U102A U108C, the self-cleavage is reported as 0.01.
With A66G U72A C76U the self-cleavage was 0.29.
A67G A78U A98G A118G showed a self-cleavage of 0.
Variant A67G A91G C113U U122C has a self-cleavage of 0.
In the case of U70C A82G A116G G123U, the self-cleavage is reported as 0.95.
With A69G A78U U122C the self-cleavage was 0.05.
In the case of C76U A90G A92G, the self-cleavage is reported as 0.17.
With U72C A89C A91U U124C the self-cleavage was 0.06.
In the case of A78G A95G G104A, the self-cleavage is reported as 0.
G75A A116U U124C gave a self-cleavage of 0.02.
Work on A66G A67G U87C A95G U108C U120A U130C yielded a self-cleavage of 0.01.
Variant A66G A67G C81U U120C has a self-cleavage of 0.49.
A67G A117G A129G showed a self-cleavage of 1.22.
U70C A86U A98G U100C showed a self-cleavage of 0.23.
For U70C U108C C113A, the self-cleavage was 0.
A69G A78U A114G A126C showed a self-cleavage of 0.01.
Work on A67C U100C U127C yielded a self-cleavage of 1.76.
For A66G A89U U139A, the self-cleavage was 2.27.
In the case of A68G A89U A116G U120C U130C, the self-cleavage is reported as 0.25.
For U72C A96G A98G, the self-cleavage was 0.03.
In the case of U70C U131C A140G, the self-cleavage is reported as 0.07.
Work on A68G A91G U120C U131C yielded a self-cleavage of 0.32.
For A69G U70C U122A U132C, the self-cleavage was 0.17.
Variant A68G A69U U120A has a self-cleavage of 2.03.
Variant A68G A86G A95U has a self-cleavage of 1.3.
A64U A94G A118G U139C showed a self-cleavage of 0.91.
Variant A67G U72C U87C U139C has a self-cleavage of 0.29.
G73A A118G A129C showed a self-cleavage of 0.02.
For U70A A95G U103C A135G, the self-cleavage was 1.05.
For A68G A118G A135G, the self-cleavage was 1.54.
U70C A90G A110C gave a self-cleavage of 0.13.
Variant U72C A89U A118G U139A has a self-cleavage of 0.03.
In the case of A66G A82G A96G, the self-cleavage is reported as 0.72.
U72A A86G A95G showed a self-cleavage of 0.41.
For A68G U70C G80U U102C A111G, the self-cleavage was 0.01.
In the case of U72A A91U U102C A116G U122C, the self-cleavage is reported as 0.16.
With A78G A92G U130C the self-cleavage was 0.13.
For A66G A92G A140U, the self-cleavage was 1.6.
Variant A66G U72C A82U A125U has a self-cleavage of 0.07.
A66G A69G A78G gave a self-cleavage of 0.34.
For U72A A82U U108A A117G, the self-cleavage was 0.01.
For A69G G83A A89G, the self-cleavage was 1.64.
Work on U72C C109A U132C yielded a self-cleavage of 0.01.
U72A A78U U87C U103C showed a self-cleavage of 0.09.
Variant U72C G75C U97C U130C A135G has a self-cleavage of 0.
A78G A90G A92C U132C gave a self-cleavage of 0.04.
A68G U72C A125G gave a self-cleavage of 0.03.
Variant G75A A116U A129G has a self-cleavage of 0.01.
With G65U C71U U124A the self-cleavage was 0.05.
Variant U72C A82U A95G has a self-cleavage of 0.51.
Variant U70C A90U U122C U131C has a self-cleavage of 0.27.
In the case of U70C C76A A90G, the self-cleavage is reported as 0.16.
For A69G A78G A90G, the self-cleavage was 0.3.
In the case of A66G U72A A118G G119U, the self-cleavage is reported as 0.16.
A67G A91G U131C showed a self-cleavage of 0.9.
Work on A67G A68G U72C A90G A96G yielded a self-cleavage of 0.3.
A67G C76U C88U A111G U131C showed a self-cleavage of 0.
A69G U72C U87A U133C gave a self-cleavage of 0.37.
With U70A U87C U100C the self-cleavage was 2.1.
With A69U A96G A125G the self-cleavage was 0.95.
Variant A78G A125U U130C has a self-cleavage of 0.26.
For A67U G75A A86G A96G, the self-cleavage was 0.09.
In the case of A68G U87A A94G U127A, the self-cleavage is reported as 2.26.
Work on A66G A90G U108A A114U yielded a self-cleavage of 0.
For A68G A69U A126G, the self-cleavage was 1.18.
Work on A66G G106A A134G yielded a self-cleavage of 0.
For A68G A95G U102C, the self-cleavage was 1.65.
A67G A126G U139C showed a self-cleavage of 0.87.
For G75C A89U U102C U103A, the self-cleavage was 0.05.
For A68U A111G A116G, the self-cleavage was 0.03.
A66G G75A U87C A125G gave a self-cleavage of 0.02.
Work on U70C U87C U139C yielded a self-cleavage of 1.02.
A67G A89G A111G showed a self-cleavage of 0.06.
With A69G U103G A126G U139C the self-cleavage was 0.02.
With A78C A92G G106A U130C the self-cleavage was 0.01.
With A68G A90G U103C the self-cleavage was 0.74.
With A66G A68U A116G the self-cleavage was 1.15.
U70C U72A A116G showed a self-cleavage of 0.14.
In the case of U70C A114U A117G U120C, the self-cleavage is reported as 0.01.
G74A A94G A118U U130C showed a self-cleavage of 0.05.
In the case of A68U A110G A117U, the self-cleavage is reported as 0.05.
Work on A68G C109U A111U yielded a self-cleavage of 0.09.
For U72C A110G U130C, the self-cleavage was 0.02.
Variant A69G A78G A92G U122A has a self-cleavage of 0.35.
A68G A92G A135G showed a self-cleavage of 1.17.
Variant G75A U102A A111G A117G has a self-cleavage of 0.
Work on U72A U87C A126G yielded a self-cleavage of 0.19.
With A69G A92G U127C the self-cleavage was 0.54.
Work on A66G A110C A116C yielded a self-cleavage of 0.02.
With U70C U102C U132C the self-cleavage was 1.62.
With A67G A94G A98U the self-cleavage was 1.79.
Work on G74A A118G U133A yielded a self-cleavage of 0.14.
Variant A68G A126U A129G has a self-cleavage of 1.24.
In the case of U70C A92G U102C G123A, the self-cleavage is reported as 1.39.
With A68G U72A A78U the self-cleavage was 0.21.
For U70C A86G U132A, the self-cleavage was 0.54.
With A67G A86G U103A the self-cleavage was 0.61.
With A78G A116G A129G the self-cleavage was 0.07.
In the case of A78G A111G U127C, the self-cleavage is reported as 0.
Work on U70C A117G U127C yielded a self-cleavage of 0.82.
A66G U97A A117C showed a self-cleavage of 0.38.
Work on C76G A78C A117G A125G yielded a self-cleavage of 0.
A67G A95U U127C U131C gave a self-cleavage of 0.6.
For A67G A69G A90G A92G A95G, the self-cleavage was 1.58.
Work on A68G U70C G123A A126G yielded a self-cleavage of 0.18.
For A68G A78U A90C A111U, the self-cleavage was 0.01.
In the case of A67U U102A A114G A117G, the self-cleavage is reported as 0.6.
A69U C101A A111U gave a self-cleavage of 0.02.
A69G U103G U131C showed a self-cleavage of 0.
In the case of U72C C81U U100C U124C, the self-cleavage is reported as 0.26.
In the case of A69G A110G A118G A126G, the self-cleavage is reported as 0.
Work on A78G A94G U108A A117G yielded a self-cleavage of 0.
With A66G U102C A114G the self-cleavage was 0.78.
Variant A78G A118G U122C has a self-cleavage of 0.19.
Work on A78C A82U A91G A111G yielded a self-cleavage of 0.02.
For U72C A86G A117U A125G, the self-cleavage was 0.07.
In the case of U70C A96G U102C, the self-cleavage is reported as 1.18.
In the case of A66G A68G A95G A96U A134U, the self-cleavage is reported as 1.07.
For A66G A82G U87C, the self-cleavage was 0.64.
Variant A69U A92G A126U has a self-cleavage of 1.99.
For A68G A110U U127C, the self-cleavage was 0.56.
For U70G A111G U120A, the self-cleavage was 0.02.
A66G A68G A69G U108C showed a self-cleavage of 0.07.
